# Measurements as given in PMC4336329 (PLoS ONE, 2015).
# About 14,000 (4.5%) of roughly 310,000 compounds showed an effect of 50% or more. The effect is printed as a negative number. This is one part of the list.
# Molecular target: human ether-à-go-go-related gene (hERG) potassium channel (human, UniProt Q12809)
# Test: primary screen, population patch clamp on CHO cells stably expressing hERG
# 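Further: peak tail current of the secondary pulse compared with the same well before compound.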
# human ether-à-go-go-related gene (hERG) potassium channel, sequence (Q12809 whole entry, looked up): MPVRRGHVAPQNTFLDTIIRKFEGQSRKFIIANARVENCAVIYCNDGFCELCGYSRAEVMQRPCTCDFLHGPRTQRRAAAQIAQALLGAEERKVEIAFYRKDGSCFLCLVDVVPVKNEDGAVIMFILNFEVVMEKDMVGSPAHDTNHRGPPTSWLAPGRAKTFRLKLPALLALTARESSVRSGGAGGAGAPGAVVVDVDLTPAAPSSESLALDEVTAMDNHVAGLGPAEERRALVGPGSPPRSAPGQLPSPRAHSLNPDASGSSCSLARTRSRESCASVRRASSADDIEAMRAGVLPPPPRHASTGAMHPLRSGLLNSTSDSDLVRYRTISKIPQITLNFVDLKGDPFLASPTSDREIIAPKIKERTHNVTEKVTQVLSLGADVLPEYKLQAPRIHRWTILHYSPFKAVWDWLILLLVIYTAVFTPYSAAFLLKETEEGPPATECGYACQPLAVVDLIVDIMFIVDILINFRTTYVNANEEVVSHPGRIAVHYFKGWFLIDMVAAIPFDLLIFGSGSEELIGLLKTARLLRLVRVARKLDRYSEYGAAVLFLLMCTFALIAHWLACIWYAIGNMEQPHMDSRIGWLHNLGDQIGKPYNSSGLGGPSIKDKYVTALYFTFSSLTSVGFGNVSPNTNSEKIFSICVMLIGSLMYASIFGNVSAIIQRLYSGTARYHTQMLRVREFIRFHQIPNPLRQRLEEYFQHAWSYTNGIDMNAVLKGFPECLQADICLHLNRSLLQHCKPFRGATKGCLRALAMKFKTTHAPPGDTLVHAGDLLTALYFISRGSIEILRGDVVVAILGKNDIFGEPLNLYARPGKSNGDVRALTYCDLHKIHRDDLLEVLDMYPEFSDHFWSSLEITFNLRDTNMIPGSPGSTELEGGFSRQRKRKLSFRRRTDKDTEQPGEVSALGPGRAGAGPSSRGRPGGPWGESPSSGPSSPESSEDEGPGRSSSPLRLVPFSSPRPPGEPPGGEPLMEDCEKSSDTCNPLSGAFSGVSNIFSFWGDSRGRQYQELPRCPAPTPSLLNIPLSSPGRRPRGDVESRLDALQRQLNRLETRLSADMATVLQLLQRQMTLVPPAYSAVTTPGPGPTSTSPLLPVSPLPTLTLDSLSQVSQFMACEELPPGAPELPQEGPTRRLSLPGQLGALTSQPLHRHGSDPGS
row,SMILES,"hERG current change (%, negative = inhibition) at 10uM [%]"
1,CC(NC(=S)Nc1ccc(OC(F)F)c(Cl)c1)C(C)(C)C (stereo not drawn),17.4
2,Nc1ccc(C(=O)NC23CC4CC(CC(C4)C2)C3)cc1,16.3
3,CC(C)(C)OC(=O)N1CCN(CCNC(=O)c2ccccc2)CC1,13.2
4,COc1ccccc1N1CCN(C(=O)c2coc(=O)c(Br)c2)CC1,20.1
5,Cc1ccc(-c2nc3cccnc3s2)cc1NS(=O)(=O)c1cccs1,-14.8
6,COc1ccc(S(=O)(=O)Nc2ccc(NC(C)=O)cc2)cc1[N+](=O)[O-],16.7
7,Cc1cc(C)c(OCC(=O)NCC2CCCO2)c(C)c1 (stereo not drawn),8.13
8,CC(C)(C)NC(=O)NC(=O)CN1CCN(c2cccc(Cl)c2)CC1,-3.18
9,COCCCNC(=O)c1cc(Sc2nnc(C)s2)nc2ccccc12,2.3
10,CCOC(=O)c1sc(NC(=O)CSc2nccc(C)n2)c(C#N)c1C,-4.68
11,COc1ccc(C(C(=O)NCCC(C)C)N(CCCO)C(=O)c2snc(C(N)=O)c2N)cc1OC (stereo not drawn),13.9
12,CC1(C)OC(=O)C(=CNCC(O)c2ccccc2)C(=O)O1 (stereo not drawn),4.51
13,CN(C)C=NC(=O)c1cc(C(=O)c2ccc(Cl)cc2)c[nH]1,-1.24
14,COc1ccc(Cl)cc1NC(=S)NCCC(c1ccccc1)c1ccccc1,5.22
15,Cc1ccccc1Nc1nc(N)nc(COC(=O)CCNS(=O)(=O)c2ccccc2)n1,-9.32
16,CCOC(=O)C1(C(F)(F)F)N=C(c2cccnc2)OC(N2CCOCC2)=N1 (stereo not drawn),5.46
17,CCOCCCNC(=S)N(Cc1ccccc1)Cc1nc2ccccc2c(=O)[nH]1,-22.3
18,CN(C)Cc1n[nH]c(=O)c2ccccc12,6.19
19,COc1ccc(CCNC(=O)CSc2nc(=O)[nH]c3c2CCC3)cc1OC,7.68
20,N/C(Cn1cncn1)=N\NC(=O)C(=O)Nc1cccc(C(F)(F)F)c1,26.6
21,CCOc1ccc(C=NCC(O)c2ccccc2)cc1 (stereo not drawn),14.5
22,CCOC(=O)CC1(c2ccccc2)CCOC(C)(C)C1 (stereo not drawn),10.2
23,Cc1ccc(S(=O)(=O)N(C)C)cc1NC(=S)NC1CCCC(C)C1C (stereo not drawn),4.66

row,SMILES,"hERG current change (%, negative = inhibition) at 10uM [%]"
1,Cc1ccc(NC2CCCCC2NS(=O)(=O)c2ccccc2)c(C)c1 (stereo not drawn),13.4
2,Fc1ccccc1/C=N/Nc1ncnc2ccccc12,8.16
3,Cc1cc(C)nc(SC2=CS(=O)(=O)c3ccccc32)n1,8.25
4,O=C(COC(=O)c1nc(Cl)ccc1Cl)NNC(=O)c1ccccc1,10.9
5,NC(=O)c1nsc(C(=O)N(c2ccccc2)C(C(=O)NCC2CCCO2)c2ccc3ncccc3c2)c1N (stereo not drawn),0.298
6,CCN(CC)C(=O)C(=O)N/N=C/c1ccc(C(=O)OC)cc1,-30.8
7,Cc1ccc(-c2cc(C(F)(F)F)n3nc(C(=O)NCCCn4ccnc4)cc3n2)cc1C,-20.6
8,COc1cc2c(c(OC)c1OC)-c1ccc(O)c(=O)cc1C(NC(C)=O)CC2 (stereo not drawn),13.7
9,Cn1cccc1/C=C1\SC(=O)N(c2ccccc2)C1=O,0.217
10,COC(=O)CSc1ncnc2c1sc1nc3c(cc12)COC(C)(C)C3,23.5
11,CCc1cc(-c2n[nH]c(CCC(=O)O)c2-c2nc3ccccc3n2C)c(O)cc1O,11.2
12,O=C(O)c1ccc(CSc2nnc(-c3ccc(Cl)cc3)o2)cc1,26.5
13,COCCn1nnnc1CN1CCN(C(=O)c2ccco2)CC1,9.58
14,COc1cccc(COC(=O)c2ccc3c(=O)n4c(nc3c2)CCC4)c1OC,11.6
15,O=[N+]([O-])c1ccc2nc(CCCO)[nH]c2c1,13.8
16,CCCCCC(=O)NNC(=S)NC(=O)c1cccc([N+](=O)[O-])c1,19
17,Cc1cc(C)n(/N=C/c2cc(Cl)cc(Cl)c2O)c(=O)c1,8.88
18,Cc1ccc(SCC(=O)NC2CCS(=O)(=O)C2)cc1C (stereo not drawn),7.98
19,Cc1ccc(-n2c(-c3cccnc3)n[nH]c2=S)c(C)c1,0.148
20,O=C1CSC(c2cccnc2)N1Cc1ccc(Cl)cc1 (stereo not drawn),1.89
21,O=C(CSc1n[nH]c(-c2cc(Cl)ccc2Cl)n1)NCCN1C(=O)CSC1=O,4.27
22,O=C(COc1ccc(Cl)cc1)N1CCCCCCC1,-12.2
23,O=C(COC(=O)c1cccnc1Cl)NCCCc1ccccc1,-21.7

row,SMILES,"hERG current change (%, negative = inhibition) at 10uM [%]"
1,O=C(Nc1ccc(Cl)c(Cl)c1)OCc1cncs1,-9.6
2,O=C(CN1C(=O)c2ccccc2S1(=O)=O)NCCSCc1cccc(Cl)c1,2.86
3,COc1ccc(/C=C/C(=O)NC(=S)Nc2ccccn2)cc1,10.7
4,CCc1ccc(/C=N/NC(=O)c2cc(-c3ccccc3OC)nc3ccccc23)s1,9.69
5,CCC1CCCCN1c1nc(-c2cccc(OC)c2O)nc2ccccc12 (stereo not drawn),9.2
6,CC(=O)c1sc(NC(=O)c2ccco2)nc1-c1ccccc1,19.4
7,OC12CCCCC1C(c1ccc3c(c1)OCO3)N(Cc1ccc(F)cc1)CC2 (stereo not drawn),-22.7
8,CS(=O)(=O)CCC(C(=O)N1CCOCC1)N1C(=O)c2cc(Cl)c(Cl)cc2C1=O (stereo not drawn),4.86
9,CCCn1c2ccccc2c2cnn(CC(=O)NCCOC)c(=O)c21,-5.71
10,COc1ccc(CCNC(=O)c2ccc(CN3CCOCC3)cc2)cc1,-7.5
11,COc1ccc(OCc2n[nH]c(=S)n2-c2ccc(C)cc2)cc1,0.659
12,COCCCNC(=O)CSc1nc2cc(C(=O)NCCOC)ccc2c(=O)n1Cc1ccc2c(c1)OCO2,-4.37
13,O=P(O)(O)c1cc(-c2ccccc2)oc1-c1ccccc1,-9.94
14,O=C(COc1ccc2c3c(c(=O)oc2c1)CCC3)NCC1CCC(C(=O)O)CC1 (stereo not drawn),16.1
15,Cc1ccc(Cn2ccc(NC(=O)c3nn(C)cc3Cl)n2)cc1,-8.14
16,Cc1ccc(-n2c(=O)c3sccc3n(CC(=O)N3CCCC3)c2=O)cc1,-7.83
17,CCC(=O)Nc1c(C)n[nH]c1C,14.6
18,CSc1ccc(C(=O)C2CCCN(C(=O)Cc3nonc3C)C2)cc1 (stereo not drawn),-2.13
19,CC(=O)c1ccc(NC(=O)c2cccc(NC(=O)c3ccccc3)c2)cc1,2.17
20,Cc1cc(C)c2oc(C(=O)N(Cc3ccccc3)C3CCS(=O)(=O)C3)cc(=O)c2c1 (stereo not drawn),-14.3
21,COC1CCCN(C(=O)c2cccc(OC3CCN(S(=O)(=O)N(C)C)CC3)c2)C1 (stereo not drawn),16.1
22,CC(=O)c1ccc(OCc2cc(C(=O)N(C)CCN3CCOCC3)no2)cc1,14.9
23,CCN(C(=O)/C=C/c1cc(OC)c(OC)c(OC)c1)C1CCCCC1,-0.894

row,SMILES,"hERG current change (%, negative = inhibition) at 10uM [%]"
1,O=C(COC(=O)/C=C/c1ccccc1)Nc1cccnc1Cl,-0.586
2,Cc1nn(C)c(C)c1/C=N/NC(=O)C(C)(C)Oc1ccc(Cl)cc1,-12.2
3,Cc1cc(Cl)cc(Cl)c1OCCOc1cccc2cccnc12,8.35
4,CCc1ccc(-c2cc(C)no2)cc1S(=O)(=O)NCCc1ccc(OC)c(OC)c1,1.38
5,O=C(CCn1nnnc1CN1CCOCC1)N1CCC(c2ccccc2F)C1 (stereo not drawn),-1.43
6,CCCCC(NC(=O)Cc1c(C)c2cc3c4c(oc3cc2oc1=O)CCCC4)C(=O)O (stereo not drawn),10.8
7,c1ccc(CNc2c3c(nc4ncnn24)CCCC3)nc1,-14.5
8,Cc1ccc(CNC(=O)CCn2ccc3cc(S(=O)(=O)N4CCCC4)ccc32)cc1,-12.7
9,COc1ccc(N2CCN(c3ccc(C(=O)O)cc3[N+](=O)[O-])CC2)cc1,11
10,COc1ccc(CC(=O)Nc2c3c(nn2C(C)(C)C)CS(=O)C3)cc1 (stereo not drawn),9.2
11,COCCCNS(=O)(=O)c1ccc2c(c1)OCCO2,6.53
12,Cc1ccc(C(=O)N2CCCC(CCC(=O)N3CCN(c4ccccn4)CC3)C2)cc1 (stereo not drawn),-9.9
13,O=C(Oc1ccccc1C(=O)N1CCOCC1)c1ccc(F)cc1,9.44
14,COc1ccc(NCc2nc3ccccc3n2C)cc1,-2.21
15,COc1cc2cc(C(c3nnnn3C3CCCC3)N3CCCCCC3)c(=O)[nH]c2cc1OC (stereo not drawn),-13.7
16,O=C(c1ccc2c(c1)OCO2)N1CCCC(c2ccccc2)C1 (stereo not drawn),-3.89
17,C=CCNC(=O)N1CCC(n2nccc2NC(=O)CCc2ccccc2)CC1,21.2
18,COc1cc(Cn2c(=O)oc3ccc(C)cc32)ccc1OC(C)C,-14.9
19,COc1ccc(CS(=O)(=O)CC(C)(O)c2ccccc2)cc1 (stereo not drawn),5.3
20,COc1ccc(NC(=O)Nc2ccc(F)cc2)c(C)c1,13.8
21,CCC1CCCCN1Cc1ccc(OC)c(C)c1C (stereo not drawn),-31.2
